Results: PubChem BioAssay AID1645887 (National Center for Advancing Translational Sciences (NCATS), 2021)
Several values for one entry are separate records, joined by “and”; a condition that tells them apart may be missing. Equal entries are not always repeated. In all, about 16,000 compounds went through this assay and about 40 (0.2%) were called active. Not shown: some 1% with an inconclusive outcome. Calls follow the shape of the dose curve; as a rule, active = well fitted activation curve with a large enough effect; inconclusive = small, poorly fitted or top-dose-only effect, or another doubt; inactive = no such curve, though single readings can be large or run the other way. The list shows a part of the results.

target: Rap guanine nucleotide exchange factor 4 (Homo sapiens) (UniProt Q8WZA2); assay: Validation qHTS for agonist of cAMP-regulated guanine nucleotide exchange factor 4 (EPAC2); conditions: EPAC2 Rap1B BODIPY-GDP exchange, fluorescence; activation: hits give high values;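 also: exchange makes BODIPY-GDP fluorescence drop when released from Rap1B; series mostly up to about 150 µM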
Chain of UniProt Q8WZA2 (Q8WZA2 whole entry, looked up): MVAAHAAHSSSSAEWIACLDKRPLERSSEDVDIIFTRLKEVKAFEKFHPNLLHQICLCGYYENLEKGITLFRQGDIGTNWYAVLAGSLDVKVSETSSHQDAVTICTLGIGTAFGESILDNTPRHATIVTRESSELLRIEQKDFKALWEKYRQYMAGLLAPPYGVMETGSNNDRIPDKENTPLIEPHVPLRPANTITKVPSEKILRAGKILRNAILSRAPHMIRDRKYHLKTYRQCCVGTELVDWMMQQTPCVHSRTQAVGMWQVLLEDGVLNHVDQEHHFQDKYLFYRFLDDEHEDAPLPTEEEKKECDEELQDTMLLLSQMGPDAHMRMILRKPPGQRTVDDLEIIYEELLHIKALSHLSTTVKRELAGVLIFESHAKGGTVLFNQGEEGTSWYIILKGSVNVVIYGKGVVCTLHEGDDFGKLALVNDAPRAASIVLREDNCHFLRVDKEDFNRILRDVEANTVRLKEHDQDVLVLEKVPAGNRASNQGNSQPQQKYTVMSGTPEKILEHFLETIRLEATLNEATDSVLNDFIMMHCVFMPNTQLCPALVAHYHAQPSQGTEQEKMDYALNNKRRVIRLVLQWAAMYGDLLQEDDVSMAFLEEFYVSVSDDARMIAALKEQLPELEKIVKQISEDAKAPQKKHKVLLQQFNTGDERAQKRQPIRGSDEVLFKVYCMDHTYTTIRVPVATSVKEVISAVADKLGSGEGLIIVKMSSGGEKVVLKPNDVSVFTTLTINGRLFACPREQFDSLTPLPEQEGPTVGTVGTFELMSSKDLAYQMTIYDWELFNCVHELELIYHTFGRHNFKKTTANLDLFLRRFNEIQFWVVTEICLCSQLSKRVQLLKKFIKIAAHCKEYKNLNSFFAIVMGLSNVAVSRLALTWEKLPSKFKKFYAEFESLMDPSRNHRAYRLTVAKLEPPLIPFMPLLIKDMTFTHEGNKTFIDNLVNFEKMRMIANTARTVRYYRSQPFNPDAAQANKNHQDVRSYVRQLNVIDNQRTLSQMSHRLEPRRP
Outline: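 Signal normalized against 6.5 mM cAMP as agonist control. Mix of EPAC2 (100 nM), RAP1B-BODIPY-GDP (250 nM) and GDP (50 uM) was read kinetically at 480/540 nm, every 5 min over 30 min, after 5 min room-temperature incubation with compound.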
% is scaled to controls: 0 for no effect and ±100 for the full control effect.

activation, inactive:
NCC(=O)CCC(=O)O -20.5%
CSc1nc(N)c2ncn([C@H]3O[C@H](COP(=O)(O)OP(=O)(O)OP(=O)(O)O)[C@@H](O)[C@@H]3O)c2n1 -20.6%
COc1ccc2[nH]cc(CCNc3nc(-c4ccccc4OC)nc4ccccc34)c2c1 6.5%
CCc1ccc(C=O)cc1 -1.72%
O=C(c1cnccn1)N1CCC2(CC1)CN(c1ccccc1)C2 -14.6%
CC(C)c1c(C(=O)NCc2cccnc2)cnn1-c1nccc(-c2cccs2)n1 2.31%
C[C@@H]1NS(=O)(=O)[C@H]2C[C@@H]3C=C[C@]2(O3)[C@H]1OC(=O)c1ccccc1Br -8.7%
Cc1cc2c(OCC(CNC(C)(C)C)OC(=O)c3ccccc3)cccc2[nH]1 (stereo unspecified) -7.48%
COc1c2ccoc2cc2oc(C)cc(=O)c12 -1.43%
CCNc1ncc2nc(-c3cc(F)cc(F)c3)c(=O)n(CCC#N)c2n1 -2.32%
CN(C)CCC=C1c2ccccc2C(C)(C)c2ccccc21 9.01%
COc1ccccc1C1CN(Cc2cccc(OCCO)c2)Cc2ccccc2O1 (stereo unspecified) -16.1%
COc1ccc(CN(CCN(C)C)c2ncccn2)cc1 -9.76%
N=C(N)SCCc1ccc(CCSC(=N)N)cc1 -12.8%
O=C(/C=C/c1cccc(F)c1)NC1CC1 -19%
O=C(O)C[C@H]1c2cc(C(F)(F)F)ccc2S(=O)(=O)N1Cc1ccccc1 -16.7%
CN1CCN(C(=O)C2CCCCC2)CC1 2.68%
Oc1ccc(C2CNCc3sccc32)cc1O (stereo unspecified) -21.1%
COC(=O)c1c(C)c2c(c(C)c1O)OC(=O)c1c(C)c(Cl)c(O)c(Cl)c1O2 -24.6% and -13.2%
COc1cc(C(=O)N2CCCCCCC2)cc(OC)c1OC -6.18%
COc1ccccc1CNc1ncnc2ccc(-c3ccccc3C#N)cc12 -6.97%
Cc1cnc(-n2ncc(C(=O)NCc3ccncc3)c2C(C)C)nc1-c1ccc(F)cc1 2.75%
O=C(c1csnn1)N1CCC[C@@]2(CCN(Cc3nccs3)C2)C1 -13.8%
O=C(O)C[C@H](O)C[C@H](O)/C=C/c1c(C2CC2)nc2ccccc2c1-c1ccc(F)cc1 -3.36%
CCNc1ncc2nc(C)c(=O)n(C3CC3)c2n1 -2.57%
CC1=C(C(=O)O)N2C(=O)[C@@H](NC(=O)C(N)C3=CCC=CC3)[C@H]2SC1 (stereo partly specified) -25.8%
O=c1[nH]c2cc(Cl)ccc2c(O)c1-c1cccc(Oc2ccccc2)c1 -11.3%
COc1cccc(-c2nccc(NCc3ccccc3)n2)c1 -15.8%
Cc1cc(/C=C/c2ccccc2)nc2ccccc12 -2.68%
Cc1ccc(C)c(OCCCC(C)(C)C(=O)O)c1 -17.8% and -30.2% and 25.6%
C[C@@H]1CCC2[C@@H](C)[C@@H](O)O[C@@H]3O[C@@]4(C)CC[C@@H]1[C@@]23OO4 (stereo partly specified) -10.8%
O=C1CCN(Cc2ccccc2)S(=O)(=O)c2c(F)cc(F)cc21 0.124%
C=CCN1CCc2c(cc(O)c(O)c2Cl)C(c2ccccc2)C1 (stereo unspecified) -4.02% and -35.1%
COc1ccccc1-c1ccc2ncnc(N3CCN(C)CC3)c2c1 -10.8%
CN(C)Cc1ccccc1 5.77%
O=C(CCCN1CCC(O)(c2ccc(Cl)cc2)CC1)c1ccc(F)cc1 -5.61% [middle of 4 runs]
O=C(O)c1cc(O)c2c(c1)C(=O)c1cc(O)cc(O)c1C2=O -17.1%
CCCCCCCCCCCCCCCC[n+]1ccc(C)c2ccccc21 -24%
CC(=O)OCC(=O)[C@@]1(O)CCC2C3CC[C@H]4CC(O)CC[C@@]4(C)C3C(=O)C[C@]21C (stereo partly specified) -14.5%
CC(C)NC(=O)N1CCCC2(CCN(C(=O)c3cc(C(F)(F)F)cc(C(F)(F)F)c3)CC2)C1 -35.6%
O=C1CCC[C@@H]2C[C@@]3(C[C@@H]4CCN1[C@H]24)Nc1cc(Cl)ccc1NC3=NCc1ccccc1 -12%
C[C@@H]1CCC2[C@](C)(CO)C(O)CC[C@@]2(C)[C@@]12CC[C@](CO)(CCO)O2 (stereo partly specified) -2.29%
COc1cc2c(cc1OC)C1C(=O)c3c(cc4c(c3O)C=CC(C)(C)O4)OC1CO2 (stereo unspecified) -5.22%
Cc1cnc(CNc2nc(-c3ccc4c(c3)OCO4)nc3ccccc23)cn1 -1.22%
Cn1cccc1C(=O)N1CCC2(CC1)CN(C(=O)Nc1ccccc1)C2 -6.8%
COCCn1c(=O)c(-c2ccc(OC)cc2)nc2cnc(N3CCOCC3)nc21 -5.39%
CCOC(=O)C1=C[C@@]2(CC)CCCN3CCc4c(n1c1ccccc41)[C@H]32 -0.763%
NCCC(=O)c1ccccc1N 0.988%
CC(C)(C)NCC(O)c1ccc(O)c(CO)n1 (stereo unspecified) -12.7%
C[C@H](/C=C/[C@H](C)C(C)(C)O)[C@H]1CC[C@H]2/C(=C/C=C3C[C@@H](O)C[C@H](O)C3)CCC[C@]12C -4.1%
COCC(=O)N1CCC2(CCN(Cc3ccccc3OC)CC2)CC1 -4.71%
CCC(C)(C)C(=O)OC1CC(C)C=C2C=CC(C)C(CCC3CC(O)CC(=O)O3)C21 (stereo unspecified) -11.4%
CC1(C)[C@@H](O)CC[C@]2(C)[C@H]3C(=O)C=C4[C@@H]5C[C@@](C)(C(=O)O)CC[C@]5(C)CC[C@@]4(C)[C@]3(C)CC[C@@H]12 -4.71% and -30.1%
COC(=O)[C@@H](N)Cc1ccc(O)c(O)c1 -4.17% and -23.9%
COc1ccc(C(=O)N2CCC3(CC2)CN(c2ccc(-c4ccccc4)cc2)C3)cc1 3.83%
COc1ccc2c(c1)c(CC(=O)O)c(C)n2Cc1ccc(Cl)cc1 -65.1%
C[C@]12CCC(=O)C=C1C=C[C@@H]1[C@@H]2CC[C@@]2(C)[C@H]1CC[C@@]21CCC(=O)O1 -3.81%
O=S1(=O)CCO[C@H]2CCCC[C@@H]2N1Cc1cccc(F)c1 -9.12%
COC(=O)N1CCC2(CC1)CN(c1ccncc1)C2 -13%
O=C(O)c1ccc(NC(=O)[C@H](Cc2ccc(O)cc2)NC(=O)c2ccccc2)cc1 -2.26%
CC(=O)C1CCC2C3CC=C4CC(O)CC[C@@]4(C)C3CC[C@]12C (stereo partly specified) -8.44%
CN(C)Cc1ccccc1-c1nccc(N(C)Cc2ccco2)n1 -2.04%
O=C(c1n[nH]c2c1CCCC2)N1CCOc2ccc(C(O)C(c3ccccc3)c3ccccc3)cc2C1 (stereo unspecified) -11.1%
CCN(Cc1ccncc1)Cc1ccc2c(c1)CN(C(=O)c1cccc(-n3nc(C)cc3C)c1)CCO2 -3.51%
Nc1ccncc1N -12.2%
Oc1ccc([C@@H]2CNCCc3c2cc(O)c(O)c3Cl)cc1 -19.8%
COC(=O)[C@H]1[C@H]2C[C@@H]3c4[nH]c5ccccc5c4CCN3C[C@H]2C[C@@H](OC(=O)c2cc(OC)c(OC)c(OC)c2)[C@@H]1OC -64.8% and -22.4%
COc1ccccc1CN1CCOc2ccc(C(C)(O)COc3ccccc3)cc2C1 (stereo unspecified) -9.38%
Cc1noc(C)c1C(=O)N1CCC2(CCN(C(=O)Nc3ccccc3)CC2)CC1 -15.8%
O=C(O)c1ccc(-n2nc(-c3ccccc3O)nc2-c2ccccc2O)cc1 -42%
N#Cc1cccc(-c2nc(Nc3ccncc3)c3ccccc3n2)c1 10.6%
COc1ccccc1-c1ccc(C(=O)NCCN2CCOCC2)c(N2CCN(c3ccccc3F)CC2)n1 -19.2%
COc1ccc(-c2coc3cc(O)ccc3c2=O)c(O)c1O -5.92%
CCCCCC(=O)Cc1cc(O)cc(O)c1C(=O)Oc1cc(CC(=O)CCCCC)c(C(=O)O)c(OC)c1 -12.7%
NC(=O)OCC(O)COc1ccc(Cl)cc1 (stereo unspecified) 1.95%
Cn1c(=O)c(-c2cccs2)nc2cncnc21 23%
O=C(c1cnsn1)N1CCOc2ccc(C(O)C(c3ccccc3)c3ccccc3)cc2C1 (stereo unspecified) 0.265%
O=C(N[C@@H]1c2ccccc2C2(CCN(C(=O)c3cc4ccccc4oc3=O)CC2)[C@H]1O)c1cccnc1 -11.6%
O=C(C[n+]1ccncc1Cl)c1ccc(F)cc1 -13.4%
COc1cc(C)c(CN2CCOc3ccc(C(O)c4cccnc4)cc3C2)cc1C (stereo unspecified) -6.67%
COc1ccc(C2Oc3cc(OC)cc(OC)c3CC2O)cc1 (stereo unspecified) -16.6%
CCCOC(=O)N[C@@H]1C(=O)N2C(C(=O)OCCC)=C(C)CS[C@H]12 -8.74%
N[C@H](C(=O)O)[C@H]1C[C@H]1C(=O)O -8%
COCCOC(=O)C1=C(C)NC(C)=C(C(=O)OC(C)C)C1c1cccc([N+](=O)[O-])c1 (stereo unspecified) 0.181% [middle of 4 runs]
CN1C(C(=O)Nc2ccccn2)=C(O)c2ccccc2S1(=O)=O -4.2% [middle of 4 runs]
O=C(NCC1Cc2cc(F)cc(-c3cnccn3)c2O1)c1cccc(-c2ccccc2F)c1 (stereo unspecified) 3.22%
